# In all, about 45,000 compounds went through this assay and about 200 (0.44%) were called active. Not shown: some 7% with an inconclusive outcome. Calls come from the whole dose curve; as a rule, active = well fitted activation curve with a large enough effect; inconclusive = small, poorly fitted or top-dose-only effect; inactive = no such curve, though single readings can be large or run the other way. Some of the results follow.
# Assay: qHTS of TDP-43 Inhibitors: NCGC Sytravon Library Screen; note: 0% is about no effect; nearly all actives have a fitted effect of over 55% in size
# Settings: yeast TDP-43 toxicity rescue, BacTiter-Glo growth, 24 h; series mostly up to 46.1 µM; growth rescue (activation): at the top concentration
# In short: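 TDP-43-expressing yeast, pregrown in raffinose, seeded at OD600 0.02 in galactose medium with compound for 24 hr at 30 deg C. Growth read by BacTiter-Glo luminescence, so rescue of toxicity appears as activation.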
row,Structure (SMILES),growth rescue (activation)
1,O=C(COC(=O)c1ccc(Br)o1)NCc1ccc(Cl)cc1,inactive: 15.6%
2,Cc1ccc(NC(=O)C2(C)CCN2C(=O)C2CCCCC2)cc1C (stereo not drawn),inactive: 24.7%
3,COc1ccc(/C=C/C(=O)Nc2cc(C)on2)cc1,inactive: 8.46%
4,CCOc1ccc(N(CC(=O)NCc2ccc3c(c2)OCO3)C(=O)c2csnn2)cc1,inactive: 8.75%
5,O=C(NCCc1ccc(Cl)cc1)C(=O)c1c[nH]c2ccccc12,inactive: 17.4%
6,CN1CCN(C(=O)CN(C)S(=O)(=O)c2ccc(F)cc2)CC1,inactive: 9.18%
7,CC1=NN(c2ccccc2)C(=O)C1C=Nc1ccccc1O (stereo not drawn),inactive: -0.213%
8,Cc1ccccc1NC(=O)C1Cc2ccccc2CN1C(=O)c1ccco1 (stereo not drawn),inactive: 12.1%
9,CSc1ccccc1NC(=O)NCCCl,inactive: -12.3%
10,CCCNC(=O)C1(C)CCN(Cc2ccc(-c3ccccn3)cc2)C1 (stereo not drawn),inactive: 2.53%
11,O=C(COC(=O)CNC(=O)c1ccccc1)Nc1ccc(Cl)cn1,inactive: -0.187%
12,Cc1ccc(/C=N/NC(=O)c2ccncc2)s1,inactive: 11.5%
13,O=[N+]([O-])c1ccc(/C([O-])=C(/C(=S)Nc2ccccc2F)[n+]2ccccc2)cc1,inactive: 14.8%
14,O=C(NCCO)c1ccc2nc(-c3ccco3)c(-c3ccco3)nc2c1,inactive: 0.776%
15,CC(=O)Nc1ccc(Oc2nc(-c3cccnc3)nc3sc4c(c23)CCCC4)cc1,inactive: 25.9%
16,COc1ccc(/C=C/C(=O)Nc2ccncc2)cc1OC,inactive: 5.39%
17,COCCn1c(C)cc(C(=O)COC(=O)c2ccc(S(=O)(=O)N(C)C)cc2)c1C,inactive: 3.42%
18,COc1ccc(C(CNC(=O)c2cccc3cccnc23)N(C)C)cc1 (stereo not drawn),inactive: 4.04%
19,CC(C)S(=O)(=O)NC(=O)C1(C)CCN1C(=O)Cc1ccccc1Cl (stereo not drawn),inactive: 10.2%
20,CCOc1cc2[nH]c(=S)n(C3CCN(Cc4ccccc4)CC3)c(=O)c2cc1OCC,inactive: 5.29%
21,Cc1ccc(S(=O)(=O)NCCC(=O)Nc2ccc(C)c(Cl)c2)cc1C,inactive: 20%
22,Cc1cc(C(=O)COc2ccc(C#N)cc2)c(C)n1-c1ccc2c(c1)OCO2,inactive: -5.4%
23,CCc1cccc(NC(=S)Nc2ccc(CN3CCOCC3)cc2)c1,inactive: 17.1%

row,Structure (SMILES),growth rescue (activation)
1,CN(C)CCOC(=O)c1sc2ccccc2c1Cl,inactive: -6.5%
2,Cc1cc(-c2nn(-c3ccccc3F)cc2CN2CCCC(CO)C2)c(C)s1 (stereo not drawn),inactive: 11.5%
3,COc1ccc(/C=N/NC(=O)Cn2cnc3c2c(=O)n(C)c(=O)n3C)cc1,inactive: -1.81%
4,CCn1c2ccccc2c2cc(NC(=O)COC(=O)c3cccc(S(=O)(=O)NC)c3)ccc21,inactive: 12%
5,COc1ccc(-c2ncn(CCC#N)c2[N+](=O)[O-])cc1,inactive: 8.98%
6,Cc1cc(C)c(Cn2c(=O)n(CCCC(=O)NCc3ccc4c(c3)OCO4)c(=O)c3sccc32)c(C)c1,inactive: 7.66%
7,Cc1ccc(Nc2ncnc3sccc23)c(C)c1,inactive: 26.9%
8,C/C(=N/NC(=O)CNC(=O)c1cccnc1)c1ccc([N+](=O)[O-])cc1,inactive: -1.9%
9,O=C(Cn1cnc([N+](=O)[O-])c1)Nc1ccccc1C(F)(F)F,inactive: 11.6%
10,CN1C(=S)N(c2cccnc2)C(=O)/C1=C\c1ccc(N(C)C)cc1,inactive: -8.53%
11,Cc1ccc(N(CC(=O)NC2CCCC2)C(=O)CNC(=O)c2cccs2)cc1C,inactive: -16.7%
12,CCOc1ccc(NC(=O)C2CCCN(S(C)(=O)=O)C2)cc1 (stereo not drawn),inactive: -4%
13,Cc1cccnc1NC1CCCCC1,inactive: -22.7%
14,CCN(CC)S(=O)(=O)c1ccc(N2CCOCC2)c(NC(=O)c2ccco2)c1,inactive: 12.2%
15,CC(=O)c1c(C)[nH]c(C(=O)OCC(=O)Nc2cccnc2Cl)c1C,inactive: 0.754%
16,CCOc1cc(C(=O)NC(=S)Nc2ccc(Cl)c(C(=O)O)c2)cc(OCC)c1OCC,inactive: -63.4%
17,Oc1ccccc1CN(Cc1ccco1)CC(O)COCc1ccc(Cl)cc1 (stereo not drawn),inactive: 3.43%
18,CCOC(=O)C1CCN(c2ncnc3c2[nH]c2cccc(OC)c23)CC1,inactive: -2.75%
19,CCOC(=O)C1CCN(S(=O)(=O)c2ccc(OC)c(C(=O)N3CCCCCC3)c2)CC1,inactive: -4.67%
20,COc1ccc(NS(=O)(=O)c2ccc(S(=O)(=O)N3CCCC3)cc2)cc1,inactive: -8.05%
21,CCCn1c(N)c(N(CCOC)C(=O)c2ccc(F)cc2F)c(=O)[nH]c1=O,inactive: -17.3%
22,CC(C)CCN(C(=O)Cc1ccccc1F)c1c(N)n(Cc2ccccc2)c(=O)[nH]c1=O,inactive: 11.8%
23,CCc1ccc(OCC(=O)NC(C)(C)C)cc1,inactive: -7.93%

row,Structure (SMILES),growth rescue (activation)
1,CC(=O)c1cccc(-c2cnc3c(NC=O)cc(-c4cccc(C(=O)N(C)C)c4)cn23)c1,inactive: 12.1%
2,CC1=CC(C)(C)n2c(O)c(N=N)c3c(C)ccc1c32,inactive: 1%
3,O=C(Nc1nnc([C@H]2C[C@H](O)[C@@H](CO)O2)s1)C(c1ccccc1)c1ccccc1,inactive: 8.91%
4,CSc1ccc(/C=N/n2c(C)nnc2C)cc1,inactive: -6.96%
5,Cc1cc(C(=O)OCC(=O)N2C(C)CCCC2C)c2ccccc2n1 (stereo not drawn),inactive: -18.5%
6,COCCCNC(=O)CN(c1cc(Cl)ccc1OC)S(=O)(=O)c1ccc(C)c([N+](=O)[O-])c1,inactive: -0.359%
7,COc1ccc(NS(=O)(=O)c2cc(NC(=O)c3ccco3)ccc2N2CCCCC2)cc1,inactive: -13.8%
8,COc1cc(C2C3=C(CCCC3=O)Nc3c2c(C)nn3-c2cccc(C)c2)cc(OC)c1O (stereo not drawn),inactive: 12.2%
9,Cc1ccc(-c2nc3c4c(-c5ccccc5)c(-c5ccccc5)oc4ncn3n2)cc1,inactive: 5.71%
10,Cc1ccc(SCc2ccc(C(=O)Nc3ccccc3Br)cc2)cc1,inactive: 18.4%
11,O=C(c1ccc(Cl)c(S(=O)(=O)N2CCCC2)c1)N1CCN(c2ccccc2F)CC1,inactive: 24.9%
12,O=C(NNC1CC(=O)N(c2ccc(Br)cc2)C1=O)c1ccccn1 (stereo not drawn),inactive: 3.73%
13,C/C(N)=C(/C#N)C(=O)COC(=O)C1Cc2ccccc2CN1S(C)(=O)=O (stereo not drawn),inactive: -7.81%
14,Cc1ccc(CN2CCN(CC3CC4C=CC3C4)CC2)cc1 (stereo not drawn),inactive: -3.62%
15,Cc1nnc(C)n1/N=C/c1ccccn1,inactive: -1.54%
16,Cc1c(/C=C(\C#N)C(=O)NCc2ccccc2)cc(C#N)n1C,inactive: 9.84%
17,O=C(C1CCN(S(=O)(=O)c2cccs2)CC1)N(c1ccccn1)C1CCCCC1,inactive: 0.34%
18,CS(=O)(=O)c1cccc(C(=O)OCC(=O)c2ccc3c(c2)OCCO3)c1,inactive: 21.9%
19,O=[N+]([O-])c1cc2c(cc1C=Nc1ccccc1)OCO2,inactive: 8.94%
20,COc1ccc2c(C)cc3nncn3c2c1,inactive: 8.62%
21,CCc1nc2sc3c(O)cc(=O)[nH]c3c2cc1C,inactive: -2.97%
22,COc1ccc(S(=O)(=O)N2CCOCC2)cc1NC(=O)Cc1c(Cl)cccc1Cl,inactive: 5.28%

# Source: PubChem BioAssay AID1347073 (National Center for Advancing Translational Sciences (NCATS), 2019)
